Source: ChEMBL document CHEMBL4888484, “Replenishing the malaria drug discovery pipeline: Screening and hit evaluation of the MMV Hit Generation Library 1 (HGL1) against asexual blood stage Plasmodium falciparum ,using a nano luciferase reporter read-out” (2022)
Hit rate of the full screen: of about 150,000 compounds, about 540 (0.36%) showed an effect of 50% or more. The list shows a part of the results.

Each compound was assayed on Plasmodium falciparum (assay: Primary screen in NF54 nanoGlo assay, in single point, at 2uM, 72h; a lower Z score goes with more inhibition). Conditions: timepoint 72 hour.
Format: functional, Erythrocyte

Compound | % Inhibition [%] | Z score
COc1cc(OC)cc(C(=O)N2CCC3(CC2)NC(=O)c2ccccc2N3C)c1 | -8 | 0.98
CC1CCCCC1CC(=O)NCC(O)c1cncs1 (stereo unspecified) | -2 | 0.3
C#CCN1CCN(CCCS(=O)(=O)c2cccc(C)c2)CC1 | -5 | 0.54
CN(Cc1ccon1)C(=O)c1csc2nc(-c3ccccc3Cl)cn12 | -4 | 0.73
Cc1ccccc1Cn1cccc1CNC(=O)NC1CCCCC1 | 14 | -2.23
N#Cc1cccc(CN2CCN(CCO)[C@@H]3CS(=O)(=O)C[C@@H]32)c1 | 2 | -0.43
O=C1[C@@H]2C(c3ccccc3Cl)=NO[C@@H]2C(=O)N1c1ccc2ccccc2c1 | -9 | 1.2
Cc1nc(CC(=O)N2CCN(c3ccnc4nncn34)CC2)cs1 | 0 | 0.04
COC(=O)[C@H]1CN(c2cnc3ccccc3n2)C[C@@H]1c1cncn1C | -9 | 1.22
NS(=O)(=O)c1ccc(NCc2ccncc2)c(C(F)(F)F)c1 | 1 | -0.19
CCOCCCC(=O)Nc1cc(CC)n[nH]1 | -22 | 4.73
Cc1ccc(-n2nnnc2C2(NC(=O)C(F)(F)F)CCCC2)cc1 | -2 | 0.24
CCc1nc(CN2CCC3CCC(C2)N3C(C)C)cs1 (stereo unspecified) | -9 | 1.17
CC(C)c1nc(CN(C)Cc2nc(-c3ccccn3)no2)co1 | -20 | 2.13
COCCCN(C(=O)N[C@@H](C)c1ccccc1)C1CCN(C)CC1 | -23 | 2.2
CCN(CCOc1ccccc1)Cc1ccn(CC)n1 | -3 | 0.36
Cc1noc(C(=O)N2CCN(C(=O)c3ccco3)CC2)c1Cl | 3 | -0.51
COc1ccc([C@@H]2CCCN2C(=O)c2cnns2)cc1OC | -11 | 1
O=C(Cc1c(F)cccc1Cl)N1CC(OCC(F)(F)F)C1 | -13 | 2.28
CC(C)N(CCS(C)(=O)=O)Cc1ccc(Cl)cc1F | -5 | 0.83
CCC(=O)NCC(=O)Nc1cc(CCc2ccccc2)ccn1 | 0 | 0.01
O=c1[nH]ncc(N2CCCC2)c1/C=C/C1CCCCC1 | -5 | 0.72

Compound | % Inhibition [%] | Z score
N#C[C@@H]1C(=O)N=C(N2CCN(C(c3ccccc3)c3ccccc3)CC2)NC12CCCC2 | -10 | 1.33
Cc1c(-c2c(-c3ccccc3)ncn2CC[C@H](C)O)[nH]c2ccc(F)cc12 | -14 | 2.32
Cn1cc(C(=O)Nc2ccc3c(c2)NCCC3)cn1 | -16 | 2.43
Cc1ccc(Cn2c(=O)c3nn(C)cc3n3c(=O)n(Cc4nc(-c5cccc(C)c5)oc4C)nc23)cc1 | 1 | -0.12
CS(=O)(=O)c1ccc(Oc2ccc(C(F)(F)F)nn2)cc1 | -13 | 2.12
Cc1ccsc1-c1nc(-c2ccc3nnn(C)c3c2)no1 | -14 | 2.42
CCCN(CC(=O)N(C)C)CC1CCC(C)CC1 (stereo unspecified) | -7 | 0.85
O=C(C[C@@H]1COC2(C1)CN(C(=O)c1cn[nH]c1)C2)N1CCCC1 | -1 | 0.22
CC(NC(=O)C1CC(=O)N(C)C1)c1ccc(N2CCN(C)CC2)cc1 (stereo unspecified) | -1 | 0.19
Cc1ccc(S(=O)(=O)N2CCC3(CC2)C[C@@H]3C(=O)O)c(C)c1 | -3 | 0.29
CC(C)(C)c1ccc(CCC(N)=O)cc1 | -8 | 0.84
Cc1ccc(F)cc1NC(=O)C1CCC(NC(=O)OC(C)(C)C)C1 (stereo unspecified) | -5 | 0.88
CN(Cc1ncc[nH]1)C(=O)c1cc(COc2ccc3c(c2)OCO3)[nH]n1 | -2 | 0.29
COc1ccc(CCc2nc(NC(=O)[C@H]3CC(=O)N(C)C3)n[nH]2)cc1OC | 15 | -2.27
CCc1nn(C)cc1C(=O)N1CCC[C@H](OC(=O)N(C)C)C1 | -12 | 1.57
Cc1cc(C)nc(O[C@H]2CCCN(C(=O)c3ccc(S(=O)(=O)N4CCCC4)cc3)C2)n1 | 14 | -1.95
O=C(NCc1nccs1)C1(c2ccncc2)CCC1 | -4 | 0.63
Cc1nc(CC(=O)N2CCCc3cc(Cl)cc(Cl)c32)cs1 | 4 | -0.54
Cc1ccc(S(=O)(=O)Nc2c(S(=O)(=O)c3ccc(C)cc3)c3nc4ccccc4nc3n2C[C@H]2CCCO2)cc1 | 48 | -4.28
COCc1ccc(NC(=O)N2CCC[C@@H]2CCO)cc1C#N | 16 | -1.56
CCC(=O)NCCc1csc(C2CCN(C(=O)c3ccc(F)cc3)CC2)n1 | -3 | 0.36
